# From the supplement of paper PMC9446081
# About 220 (0.56%) of roughly 39,000 compounds showed activity. Some of the results follow.
# Test system: Escherichia coli K-12 BW25113
# Test: relative growth (OD600 normalised to plate interquartile mean) (fraction); higher = less growth inhibition, active = 0.2 or less
# Conditions: 50 µM; LB; incubation time: overnight (16-24 h)
# 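Also: static incubation at 37 °C against the wild-type strain, values averaged over two biological replicates.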
row,SMILES,relative growth
1,C[C@@H]1CN([C@@H](C)CO)C(=O)Cc2cc(NC(=O)Nc3ccc(C(F)(F)F)cc3)ccc2O[C@H]1CN(C)CC1CCCCC1,inactive: 1.01
2,C[C@@H]1CCCCO[C@H](CN(C)C(=O)Nc2ccccc2)[C@@H](C)CN([C@H](C)CO)C(=O)c2cc(NS(=O)(=O)c3ccc(Cl)cc3)ccc2O1,inactive: 1.02
3,COCCOC(=O)N1C(=O)[C@@]2(c3cc(C#CC4(O)CCCCCC4)ccc31)[C@H](C(=O)N1CCN(c3ncccn3)CC1)[C@H]1C(=O)O[C@H](c3ccccc3)[C@H](c3ccccc3)N1[C@@H]2c1ccc(OCCO)cc1,inactive: 1.03
4,COc1ccc(NC(=O)N(C)C[C@@H]2Oc3c(NC(=O)CCCCCC(=O)Nc4ccccc4N)cccc3C(=O)N([C@@H](C)CO)C[C@H]2C)cc1,inactive: 1.01
5,C[C@@H]1CN([C@@H](C)CO)C(=O)c2cc(NC(=O)CCC(F)(F)F)ccc2O[C@@H](C)CCCCO[C@@H]1CN(C)Cc1ccc(C(=O)O)cc1,inactive: 1.03
6,CCCNC(=O)N(C)C[C@H]1Oc2cc(C#Cc3cccc(F)c3)ccc2S(=O)(=O)N([C@H](C)CO)C[C@@H]1C,inactive: 1.01
7,O=C(C[C@H]1CC[C@H]2[C@@H](COC[C@@H](O)CN2C(=O)Nc2ccc(C(F)(F)F)cc2)O1)NCCc1ccncc1,inactive: 0.889
8,Cc1noc(C)c1S(=O)(=O)N(C)C[C@H]1OCCCC[C@@H](C)Oc2ccc(NC(=O)CCCCCC(=O)Nc3ccccc3N)cc2C(=O)N([C@@H](C)CO)C[C@@H]1C,inactive: 0.982
9,C[C@@H]1CN([C@@H](C)CO)C(=O)Cc2cc(NC(=O)CCCCCC(=O)Nc3ccccc3N)ccc2O[C@@H]1CN(C)Cc1ccc(C(F)(F)F)cc1,inactive: 1.04
10,COc1ccc(C(=O)Nc2ccc(CN3C(=O)[C@@]4(O[C@@H](CC(=O)N5Cc6ccccc6C[C@H]5CO)[C@H]([Si](C)(C)c5ccc(OC)cc5)[C@H]4C)c4ccccc43)cc2)cc1,inactive: 0.945
11,CC(=O)c1ccccc1OC[C@@H](O)CN(CCO)CCO,inactive: 0.961
12,Cc1ccc(S(=O)(=O)Nc2ccc3c(c2)CC(=O)N([C@H](C)CO)C[C@H](C)[C@H](CN(C)Cc2ccc(Cl)c(Cl)c2)O3)cc1,inactive: 1.02
13,C[C@@H]1CCCCO[C@@H](CN(C)Cc2ccc(C(F)(F)F)cc2)[C@@H](C)CN([C@@H](C)CO)C(=O)c2cc(NC(=O)c3ccncc3)ccc2O1,inactive: 0.984
14,Cc1ccc(S(=O)(=O)N(C)C[C@@H]2Oc3ccc(NC(=O)C4CC4)cc3CC(=O)N([C@H](C)CO)C[C@H]2C)cc1,inactive: 0.99
15,COc1ccc([Si](C)(C)[C@H]2[C@H](CC(=O)N3CCC[C@H]3CO)O[C@@]3(C(=O)N(Cc4cccc(N5C(=O)COc6ccccc65)c4)c4ccccc43)[C@@H]2C)cc1,inactive: 1.03
16,C[C@H](CO)N1C[C@H](C)[C@@H](CN(C)C(=O)Nc2ccc(F)cc2)Oc2ccc(NC(=O)Nc3cccc4ccccc34)cc2CC1=O,inactive: 1.01
17,O=C1O[C@@H](c2ccccc2)[C@@H](c2ccccc2)N2[C@@H](c3ccc(O)cc3)[C@]3(C(=O)Nc4ccc(C#CC5(O)CCCCCC5)cc43)[C@@H](C(=O)N3CCCCCCC3)[C@H]12,inactive: 1.02

row,SMILES,relative growth
1,COc1ccc2c3c([nH]c2c1)[C@@H](CO)N(C[C@]13CN(C1)C(=O)Cc1cccnc1)S(=O)(=O)c1ccc(cc1)C,inactive: 0.987
2,O=C(CCCCCNC(=O)OCc1ccc(CO[C@@H]2C[C@H](C3CCCCC3)C=C(C(=O)N3CCN(Cc4ccc5c(c4)OCO5)CC3)O2)cc1)NO,inactive: 0.995
3,C[C@@H]1CN([C@H](C)CO)C(=O)Cc2cc(NC(=O)CCN3CCOCC3)ccc2O[C@H]1CN(C)C(=O)NC1CCCCC1,inactive: 0.987
4,C[C@@H]1CN([C@@H](C)CO)C(=O)c2cccc(NC(=O)Nc3ccc(C(F)(F)F)cc3)c2O[C@H]1CN(C)C(=O)Nc1ccccc1,inactive: 0.94
5,COc1ccc(NC(=O)Nc2ccc3c(c2)C(=O)N([C@H](C)CO)C[C@H](C)[C@@H](CN(C)C(=O)c2ccccc2)OCCCC[C@@H](C)O3)cc1,inactive: 0.967
6,COc1ccc(NC(=O)N(C)C[C@@H]2Oc3ccc(NC(=O)Nc4cccc5ccccc45)cc3C(=O)N([C@H](C)CO)C[C@H]2C)cc1,inactive: 1
7,O=C(C1=C[C@H](c2coc3ccccc3c2=O)C[C@H](OCCCCO)O1)N1CCN(Cc2ccc3c(c2)OCO3)CC1,inactive: 1.04
8,COCCNC(=O)C[C@H]1CC[C@H]2[C@@H](COC[C@H](O)CN2S(=O)(=O)c2ccccc2C)O1,inactive: 1
9,C[C@H](CO)N1C[C@H](C)[C@H](CN(C)Cc2ccc(Oc3ccccc3)cc2)Oc2ccc(NC(=O)CCC(F)(F)F)cc2CC1=O,inactive: 0.988
10,COc1ccc(NC(C)=S)cc1C,inactive: 0.995
11,C[C@@H]1CN([C@H](C)CO)C(=O)c2ccccc2-c2ccccc2CO[C@@H]1CN(C)C(=O)Nc1cccc(Cl)c1Cl,inactive: 1.01
12,CO[C@@H]1CN(C)C(=O)c2cc(NC(=O)Nc3ccccc3Cl)ccc2OC[C@@H](C)N(Cc2ccccc2C(=O)O)C[C@H]1C,inactive: 1
13,COc1ccc(-c2cccc(-c3ccc([C@H]4CC(=O)C[C@@H](c5ccccc5)C45C(=O)OC(C)(C)OC5=O)cc3)c2)cc1,inactive: 1
14,C[C@@H]1CN([C@H](C)CO)C(=O)c2cccc(NS(=O)(=O)c3ccccc3)c2O[C@H]1CN(C)Cc1ccc(Oc2ccccc2)cc1,inactive: 1.04
15,C[C@H]1CN([C@@H](C)CO)C(=O)c2cc(NC(=O)CCC(F)(F)F)ccc2O[C@@H]1CN(C)Cc1ccc(C(F)(F)F)cc1,inactive: 1.04
16,C[C@@H]1CCCCO[C@H](CN(C)S(=O)(=O)c2cccs2)[C@@H](C)CN([C@H](C)CO)C(=O)c2cc(NS(=O)(=O)c3ccc(Cl)cc3)ccc2O1,inactive: 0.977
17,C[C@@H]1CN([C@H](C)CO)C(=O)c2cc(-c3cncnc3)cnc2O[C@@H]1CN(C)C(=O)CN1CCOCC1,inactive: 1.04
